In the RNAGym collection of RNA variant scans (doi:10.7554/elife.90254):
The source gives no read counts; variants with many changes may rest on few reads.

B1: LINE1-mini (parent)
chain: GGCAGAGCUCAACACAGCGUGGCAAAGUGGCUGUGGCUAGACUGCC

Variants of: B1
Experiment: self-cleavage, relative activity (ratio to wild type); higher = more cleavage; in vitro, sequencing; the parent is a self-cleaving ribozyme
G5C A6C C13U C18A showed a self-cleavage of 0.03.
Variant G5A U32C U34A G44U has a self-cleavage of 0.04.
G5A U32C U43G gave a self-cleavage of 0.23.
With G5C A6U G30C the self-cleavage was 0.04.
In the case of G5A G27U U28C C37A G40U, the self-cleavage is reported as 0.03.
For G5A U9A C18A, the self-cleavage was 0.22.
Work on G5A G21U A26U yielded a self-cleavage of 0.11.
With G5A U20C A39G the self-cleavage was 0.01.
Variant G5A G22C G36A U43G has a self-cleavage of 0.04.
For G5A U9G A14U G19A U28A G29A U34C U38C, the self-cleavage was 0.02.
G5A U38A A41G gave a self-cleavage of 0.28.
With G5C A6G G17A G30U G33U G36A G40U the self-cleavage was 0.06.
In the case of G5C A11U G36A, the self-cleavage is reported as 0.04.
G5A G30A G35A C45A gave a self-cleavage of 0.03.
In the case of G5C A6U G19A G30U C31G, the self-cleavage is reported as 0.04.
In the case of G5A G22U A24U C31G, the self-cleavage is reported as 0.02.
Variant G5A U34A C37A A41C U43G C46U has a self-cleavage of 0.07.
In the case of G5C A12G G44A, the self-cleavage is reported as 0.
In the case of G5C A12C G17U C45U, the self-cleavage is reported as 0.01.
With G5C A11G C23U U34A the self-cleavage was 0.
In the case of G5A G30C C42A C46A, the self-cleavage is reported as 0.03.
G5C A14C C18G G33U C37G U38G C46U gave a self-cleavage of 0.
Variant G5A G22U G40C has a self-cleavage of 0.08.
In the case of G5A U28G U34A G44A, the self-cleavage is reported as 0.04.
Variant G5A G22A C23G U32C has a self-cleavage of 0.03.
Variant G5A U34G C45G has a self-cleavage of 0.06.
G5A G30A G44U C45U gave a self-cleavage of 0.07.
Variant G5A U20G A24C G40U A41G has a self-cleavage of 0.06.
For G5A G29A C31U, the self-cleavage was 0.07.
G5C A6C C15G gave a self-cleavage of 0.01.
G5C A12G G19U C31U G36C showed a self-cleavage of 0.01.
G5A U28G G36C gave a self-cleavage of 0.03.
G5A G36A C42A showed a self-cleavage of 0.14.
For G5A G29A C45U, the self-cleavage was 0.02.
Work on G5A U20C G40A G44A yielded a self-cleavage of 0.02.
For G5A U20C G27A U34C G36U, the self-cleavage was 0.03.
With G5A U9C C15G G35C the self-cleavage was 0.02.
Work on G5C A11U C15A yielded a self-cleavage of 0.02.
G5C A6C C10A G22U gave a self-cleavage of 0.01.
Variant G5A G33U G40A has a self-cleavage of 0.09.
For G5C A6U C8G C10A A24C, the self-cleavage was 0.01.
G5A U34G C37U U38C A39G showed a self-cleavage of 0.03.
G5A G40C A41C gave a self-cleavage of 0.04.
G5A G40C G44C showed a self-cleavage of 0.05.
G5A U9A G29C G36A showed a self-cleavage of 0.15.
Work on G5A U20C A25U yielded a self-cleavage of 0.05.
Work on G5C A12C G19U C37U U38A yielded a self-cleavage of 0.01.
G5A U28A C31U G36A gave a self-cleavage of 0.01.
In the case of G5A U9C A24G A25G A39U, the self-cleavage is reported as 0.04.
Work on G5C A12C G19A U32G G33U G36A G40U yielded a self-cleavage of 0.04.
Variant G5C A6C C8U C15G has a self-cleavage of 0.11.
Work on G5A G22U C42U yielded a self-cleavage of 0.64.
Work on G5A G33C C42G yielded a self-cleavage of 0.03.
G5A G35U G36U gave a self-cleavage of 0.27.
In the case of G5A G29U G35C, the self-cleavage is reported as 0.09.
Work on G5C A12U G44A yielded a self-cleavage of 0.04.
Work on G5C A14C C45A yielded a self-cleavage of 0.04.
G5A G21U G44C showed a self-cleavage of 0.07.
In the case of G5A G21U G29U C42U, the self-cleavage is reported as 0.89.
For G5C A14C G36C, the self-cleavage was 0.06.
Work on G5C A12G U28A C31U yielded a self-cleavage of 0.02.
In the case of G5A U38C G44C, the self-cleavage is reported as 0.09.
Work on G5C A11U A16U G29U G35U C37U yielded a self-cleavage of 0.01.
Work on G5C A6C C13U C15U yielded a self-cleavage of 0.25.
Work on G5A U9C G21A G33U C37G yielded a self-cleavage of 0.
For G5A U9C U38G, the self-cleavage was 0.03.
Work on G5A G27C U38A yielded a self-cleavage of 0.13.
For G5A G30A G36A A39C, the self-cleavage was 0.53.
With G5A U20A A24G G40U the self-cleavage was 0.16.
For G5A U20G G35C A39U, the self-cleavage was 0.03.
G5A U28C G29U G40U showed a self-cleavage of 0.03.
Variant G5C A12C C18A G30C C31G has a self-cleavage of 0.03.
Variant G5C A11G G17U C46A has a self-cleavage of 0.
G5A U28G G36C A39U gave a self-cleavage of 0.02.
Variant G5A U9G C42U has a self-cleavage of 0.11.
Work on G5A U28A G40U yielded a self-cleavage of 0.05.
Work on G5A U9A C23A A24G A26G G44U yielded a self-cleavage of 0.02.
In the case of G5A G22C A26G U32A G33C C45U, the self-cleavage is reported as 0.02.
Work on G5A U9C C18A yielded a self-cleavage of 0.03.
Work on G5A G22U C23A yielded a self-cleavage of 0.05.
Work on G5C A6C G7C U9C yielded a self-cleavage of 0.06.
G5A U9C U34A G35A gave a self-cleavage of 0.03.
G5A U28A C31A G33U showed a self-cleavage of 0.07.
